In the supplement of paper PMC4604168 (melanoma cell lines):
This is one part of the list. Many values rest on one well or one pass, so single values are uncertain.

Tested on: COLO829
Assay: cell count relative to DMSO control; melanoma cells; higher = more viable cells
Conditions: library dose: standard library concentration; 72 h
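Note: cells treated in 1,536-well plates, then fixed and DAPI-stained, with nuclei counted from automated high-throughput microscope images.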

| SMILES | cell count |
| --- | --- |
| CCN(CC)CCNC(=O)c1c(C)[nH]c(/C=C2\C(=O)Nc3ccc(F)cc32)c1C [sunitinib] + CCCS(=O)(=O)Nc1ccc(F)c(C(=O)c2c[nH]c3ncc(Cl)cc23)c1F [PLX4720] (first compound 2 µM, partner dose 0.4 µM) | 81.6% |
| C[C@]1(O)C[C@@H](c2nc(-c3ccc4ccc(-c5ccccc5)nc4c3)c3c(N)nccn32)C1 + Nc1cccc2c1CN(C1CCC(=O)NC1=O)C2=O [lenalidomide] (first compound 2 µM, partner dose 5 µM) | 109% |
| Cn1cnc2c(F)c(Nc3ccc(Br)cc3Cl)c(C(=O)NOCCO)cc21 [selumetinib] + CCc1ccc(CCOc2ccc(CC3SC(=O)NC3=O)cc2)nc1 [pioglitazone] (first compound 0.075 µM, partner dose 10 µM) | 87.8% |
| CCN(CC)CCNC(=O)c1c(C)[nH]c(/C=C2\C(=O)Nc3ccc(F)cc32)c1C [sunitinib] + CCCCCCCCc1ccc(CCC(N)(CO)CO)cc1 [fingolimod] (first compound 2 µM, partner dose 10 µM) | 61.9% |
| CCN(CC)CCNC(=O)c1c(C)[nH]c(/C=C2\C(=O)Nc3ccc(F)cc32)c1C [sunitinib] + NCC(=O)Nc1ccc(-n2nc(C(F)(F)F)cc2-c2ccc3c(ccc4ccccc43)c2)cc1 [OSU03012] (first compound 2 µM, partner dose 5 µM) | 112% |
| Cn1cnc2c(F)c(Nc3ccc(Br)cc3Cl)c(C(=O)NOCCO)cc21 [selumetinib] + O=C(O)C(=O)Nc1sc2c(c1C(=O)O)CCNC2 [TCS401] (first compound 0.075 µM, partner dose 8.33333 µM) | 94.9% |
